# From article PMC4336329 (PLoS ONE, 2015)
# Among all 310,000 compounds or so, about 14,000 (4.5%) showed an effect of 50% or more. The effect is printed as a negative number. This is one part of the list.
# Molecular target: human ether-à-go-go-related gene (hERG) potassium channel (human, UniProt Q12809)
# Test: primary screen, population patch clamp on CHO cells stably expressing hERG
# 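Note: peak tail current of the secondary pulse compared with the same well before compound.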
# Sequence of human ether-à-go-go-related gene (hERG) potassium channel (Q12809 whole entry, looked up): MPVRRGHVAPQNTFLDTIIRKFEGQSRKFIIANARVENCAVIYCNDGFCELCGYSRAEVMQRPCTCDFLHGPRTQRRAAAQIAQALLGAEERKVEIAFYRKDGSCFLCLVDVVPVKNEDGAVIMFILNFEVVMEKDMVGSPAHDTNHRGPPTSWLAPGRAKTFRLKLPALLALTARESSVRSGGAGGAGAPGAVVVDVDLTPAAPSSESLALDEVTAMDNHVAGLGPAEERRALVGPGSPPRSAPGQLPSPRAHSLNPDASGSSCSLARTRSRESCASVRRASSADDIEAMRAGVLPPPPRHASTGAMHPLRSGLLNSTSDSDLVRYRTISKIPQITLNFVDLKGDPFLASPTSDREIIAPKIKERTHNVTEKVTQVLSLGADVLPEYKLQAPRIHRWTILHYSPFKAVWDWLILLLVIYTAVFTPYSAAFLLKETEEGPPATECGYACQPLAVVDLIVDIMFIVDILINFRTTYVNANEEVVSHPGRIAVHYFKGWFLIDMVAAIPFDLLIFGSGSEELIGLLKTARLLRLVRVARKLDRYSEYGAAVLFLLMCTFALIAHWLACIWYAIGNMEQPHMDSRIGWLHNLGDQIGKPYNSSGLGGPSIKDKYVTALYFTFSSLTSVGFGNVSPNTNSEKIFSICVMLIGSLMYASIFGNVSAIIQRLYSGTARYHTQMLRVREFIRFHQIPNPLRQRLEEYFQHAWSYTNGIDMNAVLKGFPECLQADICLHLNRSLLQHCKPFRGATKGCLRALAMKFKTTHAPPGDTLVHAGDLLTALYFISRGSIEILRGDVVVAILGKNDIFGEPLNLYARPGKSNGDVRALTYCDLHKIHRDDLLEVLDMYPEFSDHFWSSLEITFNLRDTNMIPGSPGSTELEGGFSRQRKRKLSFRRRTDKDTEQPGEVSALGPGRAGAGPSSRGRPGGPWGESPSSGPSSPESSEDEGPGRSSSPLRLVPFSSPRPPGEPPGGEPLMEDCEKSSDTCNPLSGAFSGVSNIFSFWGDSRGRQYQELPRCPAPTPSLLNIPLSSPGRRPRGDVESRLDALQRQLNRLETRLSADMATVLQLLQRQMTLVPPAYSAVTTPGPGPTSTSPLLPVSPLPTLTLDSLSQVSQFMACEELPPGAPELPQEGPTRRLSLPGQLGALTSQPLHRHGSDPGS
row,Compound,"hERG current change (%, negative = inhibition) at 10uM"
1,COC(=O)C1CCN(S(=O)(=O)c2ccc(NC(C)=O)cc2)CC1,2.04%
2,CC(=O)c1c(C)[nH]c(=S)c(C#N)c1-c1ccc(F)cc1,23%
3,CN(C)c1ccc(/C=N/NC(=O)c2ccc(NC(=O)c3ccccc3)cc2)cc1,-4.1%
4,O=C(c1ccc(Cl)c(S(=O)(=O)N2CCCC2)c1)N1CCOCC1,-23.2%
5,CC1(C)Cc2ccccc2-c2nnc(-c3ccco3)n21,10.1%
6,COc1ccccc1NC(=O)NNC(=O)CCN1CCOCC1,12.7%
7,CC1CC(C)CN(CC(=O)Nc2cc(S(=O)(=O)N3CCOCC3)ccc2N2CCCC2)C1 (stereo not drawn),5.56%
8,Cc1noc(C)c1COc1cccc(C(=O)OCC(=O)N2CC(=O)Nc3ccccc32)c1,-0.541%
9,Fc1cccc(Cl)c1/C=C/c1cnc2ccccc2n1,28.1%
10,O=C(CCCN1C(=O)/C(=C\c2ccco2)SC1=S)Nc1ccc2ccccc2c1,1.55%
11,COc1cc(NC(=O)CN2C(=O)NC(C)(c3ccc4ccccc4c3)C2=O)c(C)cc1[N+](=O)[O-] (stereo not drawn),-1%
12,O=C(CC1S/C(=N/N=C2CCCCCC2)NC1=O)Nc1ccccc1C(F)(F)F (stereo not drawn),5.98%
13,O=C(CCN1C(=O)/C(=C/c2cccs2)SC1=S)Nc1ccc(O)cc1,10.1%
14,O=C(CN(CC1CCCO1)C(=O)CCC(=O)Nc1ccccn1)NCc1ccccc1 (stereo not drawn),2.7%
15,Cl.Nc1ccc(N2CCCCCC2)cc1,-9.09%
16,CCCOc1ccc2c(=O)c(-c3cc(C(=O)OC)oc3C)c(C)oc2c1,-26.1%
17,COC1(OC)C(=N/O)/C(=N\O)CCC1O (stereo not drawn),-6.26%
18,COc1cccc(OCCOc2c(OC)cccc2OC)c1,0.336%
19,O=C(COc1ccc(Cl)cc1)NCc1nnc(SCC(=O)N2CCCCC2)o1,-16.3%
20,Cc1nc2c(-c3ccccc3)c(C)nn2c(C)c1CC(=O)O,5.02%
21,Cc1cccc2cc(CN(Cc3ccco3)C(=O)c3ccco3)c(=O)[nH]c12,-1.66%
22,Cc1csc(NC(C)c2nc3cc(Cl)c(N4CCCCC4)cc3n2CCOCCO)n1 (stereo not drawn),-35.2%

row,Compound,"hERG current change (%, negative = inhibition) at 10uM"
1,COc1ccc(C(=O)C2CCCN(C(=O)c3cc4nc(C)cc(C)n4n3)C2)cc1F (stereo not drawn),-8.72%
2,COc1ccc(S(=O)(=O)NC2(C(F)(F)F)N=C(c3ccccc3)NC2=O)cc1 (stereo not drawn),31.5%
3,CC(C)COC(=O)C(N)C(C(=O)OCC(C)C)c1ccccc1.Cl (stereo not drawn),-4.15%
4,CCN(CC)S(=O)(=O)c1ccc(Cl)c(C(=O)NC(C)C(c2cccs2)N2CCCC2)c1 (stereo not drawn),-0.0909%
5,CC(C)(C#CC(O)(c1ccccc1)c1ccccc1)N1CCCC1.Cl,-47.9%
6,CC1CC(=O)N(c2ccc(C(C)C)cc2)C(=O)C1,9.54%
7,O=C(COC(=O)c1cccnc1Cl)Nc1cc(S(=O)(=O)N2CCCCC2)ccc1Cl,-18.9%
8,CC(C)NC(=O)c1cc2c(-c3ccc(Cl)cc3)nn(C)c2s1,4.67%
9,COc1cccc(-c2ncc3ccccc3c2COC(=O)CCC(=O)O)c1,-2.62%
10,COc1cccc(CC(=O)Nc2sc3c(c2C(N)=O)CCCC3)c1,12.4%
11,CN(C(=O)CSc1nnc(C2CC2)n1-c1ccccc1)C1CCS(=O)(=O)C1 (stereo not drawn),3.43%
12,O=C(NCc1ccccc1Cl)c1cc2ccccc2oc1=O,17.4%
13,CCOc1cc(S(=O)(=O)N2CCC(c3nc4ccccc4s3)CC2)c(OCC)cc1S(=O)(=O)N1CCCCC1,3.29%
14,C=CCn1c(-c2ccco2)n[nH]c1=S,13.6%
15,COc1ccc(COC(=O)NC(C(=O)O)c2ccccc2)cc1 (stereo not drawn),2.6%
16,Cc1ccc(S(=O)(=O)NCCCNc2ccc([N+](=O)[O-])cc2)cc1,-65.2%
17,Cc1cccc(C)c1NC(=O)Nc1ccc2c(c1)OCO2,3.47%
18,CC(Sc1ccccc1)C(=O)NNC(=O)c1csc(N2CCOCC2)n1 (stereo not drawn),0.437%
19,COc1cccc(NC(=O)C(C)SCc2ccccc2)c1 (stereo not drawn),-7.6%
20,COC(=O)C1=C(c2ccc(F)cc2F)C[C@@H]2CC[C@H]1N2C(=O)NCc1ccc(F)cc1,-46.4%
21,O=C(c1ccccc1)n1ccc(-c2cnc(-c3ccccc3)s2)n1,16%
22,CC(OC(=O)CCN=C1NS(=O)(=O)c2ccccc21)C(=O)NC1CCCCC1C (stereo not drawn),-9.25%

row,Compound,"hERG current change (%, negative = inhibition) at 10uM"
1,CC(C)[C@H](NC(=O)c1ccco1)C(=O)OCC(=O)Nc1ccc(Cl)c(S(=O)(=O)N(C)C)c1,-27.8%
2,COc1ccc2nc(NC(=O)c3ccc(F)cc3)sc2c1,18.3%
3,CCCCn1c(SCC(=O)N2CCC(C)CC2)nc2ccsc2c1=O,-70.7%
4,COc1ccc(C(=O)NCCNc2nc3ccc(C)cc3cc2C#N)cc1OC,-6.08%
5,Cc1ccc(N(CC(=O)Nc2ccccc2-c2ccccc2)S(=O)(=O)c2ccccc2)cc1,13.2%
6,CCCNC(=O)C(Cc1ccccc1F)NC(=O)c1ccc(C#N)cc1 (stereo not drawn),-11.8%
7,CCCNC(=O)NCc1ccc(N2CCCC2=O)cc1,8.43%
8,Cc1ccc(/C=N/NC(=O)CC(=O)NCc2cccnc2)cc1,5.03%
9,C=C(Br)Cn1cnc2ccccc21,1.96%
10,COc1ccc2cc(CN(Cc3cccnc3)S(=O)(=O)c3ccccc3)c(=O)[nH]c2c1,-31.9%
11,Cc1c(NC(=O)C(C)OC(=O)C23CC4CC(CC(Br)(C4)C2)C3)c(=O)n(-c2ccccc2)n1C (stereo not drawn),-0.374%
12,COc1ccc(CN=Cc2c(C(=O)O)[nH]c3ccccc23)cc1,4.73%
13,COC(=O)C1=C[C@@H](C(=O)OC)[C@@H]2C3=C(C(=O)[C@@]2(C)NC(=O)c2ccccc2)[C@H](C)n2c(=O)n(C)c(=O)n2[C@@H]3C1,5.63%
14,CCCCNCc1cc(Br)c(OCC(=O)NCc2ccccc2)c(OC)c1.Cl,-39.4%
15,COc1nc(Nc2cccc(F)c2)nc(OC)n1,-12.4%
16,COc1cc(SC)ccc1C(=O)NCc1ccccc1,-1.62%
17,COc1ccc(S(=O)(=O)N2CCC(C(=O)NC3CCCCC3C)CC2)cc1 (stereo not drawn),4.99%
18,COc1ccc(-c2cc(C(=O)NCc3ccccc3)no2)cc1OC,-9.12%
19,Cc1sc(NC(=O)C2C3CCC(O3)C2C(=O)O)c(C(=O)OC(C)C)c1-c1ccc(Cl)cc1 (stereo not drawn),0.0141%
20,CCOC(=O)CSc1nc(NC#N)nc(N(CC)CC)n1,4.39%
21,O=C(CSc1nnc(-c2cccnc2)n1-c1ccccc1)NCc1ccc2c(c1)OCO2,-69%
22,CCN(CC)S(=O)(=O)c1ccc(C(=O)Nc2ncn(Cc3ccccc3)n2)cc1,-2.91%

row,Compound,"hERG current change (%, negative = inhibition) at 10uM"
1,COc1cccc(NC(=O)C(=O)N2CCOCC2)c1,14.5%
2,CCOc1ccc(C(=O)CSCCC(=O)O)cc1,18.7%
3,CCCCCn1c(=N)n(CC(O)COc2ccccc2OC)c2ccccc21.Cl (stereo not drawn),-81.1%
4,Nc1nnnn1/N=C/c1ccccc1OCc1ccc(Cl)cc1,2.22%
5,O=C1NC(=S)N(c2ccccc2F)C(=O)/C1=C\c1cccs1,11.5%
6,O=C(c1ccc(S(=O)(=O)NCC2CCCO2)cc1)N1CCN(c2ccccc2F)CC1 (stereo not drawn),24.2%
7,O=C(OCc1cc2ccccc2[nH]c1=O)c1ccncc1,-1.98%
8,COc1ccc(CNC(=O)CCN2C(=S)NC(C)(C)CC2C)cc1 (stereo not drawn),4.81%
9,CC(C)(O)C(=O)Nc1ccc([N+](=O)[O-])c(C(F)(F)F)c1,10.4%
10,CC(C)OC(=O)c1c(NC(=O)c2cnn3c2NC(c2ccccc2)CC3C(F)F)sc2c1CCCC2 (stereo not drawn),6.72%
11,Cc1nc2ccc(NC(=O)c3ccc(Cl)c(NC(=O)c4cccs4)c3)cc2s1,1.92%
12,OCCSc1nc(-c2ccccc2)nc2ccc(F)cc12,6.2%
13,Cc1ccc(OC(=O)c2ccc(C)c(C)c2)cn1,-0.436%
14,CCOC(=O)C1CCN(CCCSc2ccccc2)CC1.Cl,-62.4%
15,COc1cccc(NC(=O)CN(C)C(=O)c2cc(S(=O)(=O)NCc3ccccc3)ccc2C)c1,-71.1%
16,CC(C)NC(=O)C1CCN(C2CCN(C(=O)c3cc4c(s3)CCCCC4)CC2)CC1,-51.8%
17,COc1nc(-c2ccccc2)ccc1-c1noc(COc2ccccc2)n1,15.2%
18,Cc1cccc(C)c1NC(=O)c1cccnc1,18%
19,Nc1nc(C(=O)N2CCOCC2)nn1S(=O)(=O)c1ccccc1,11.3%
20,CCN(CC(=O)Nc1ccccc1C(F)(F)F)C(=O)CN1C(=O)NC2(CCCC2)C1=O,-9.42%
21,Cc1ccc2nc(NC(=O)/C=C/c3ccc4c(c3)OCO4)sc2c1,14.8%
